# Patent US10947238B2, “Wee1 kinase inhibitors and methods of making and using the same” (THE REGENTS OF THE UNIVERSITY OF COLORADO, a body corporate, priority 2015, dated 2021)
# Columns and labels:
# ONS-76 cells = experiment: MTS assay, ONS-76 cells, single agent; assay type: cell-based
# [1] = tested on: medulloblastoma D458 suspension cell line; experiment: D458 cell number and viability by flow cytometry (Viacount); assay type: cell-based; details: 72 hours, p<0.01
# Daoy cells [2] = experiment: MTS assay of synergy with cisplatin in Daoy cells (Chou-Talalay Combination Index); assay type: cell-based; details: 72 hours
# Description: CI values determined using the Chou-Talalay equation, with combination treatments indicated as non-synergistic (red, >1.05), synergistic (green, <0.95) and intermediate (yellow, 0.96-1.04). […] Dose responses for increasing cisplatin concentrations at a concentration (300 nM) of several Wee1 inhibitors, compared to cisplatin alone.
# [3] = pharmacokinetics and tissue distribution in mice with dorsal flank tumor xenografts; assay type: in vivo
# Excerpt: Data represent the mean±SD of 3 mice.
# Wee1 kinase = Wee1 kinase (Homo sapiens, UniProt P30291); details: cited from earlier work
# Chain of UniProt P30291 (P30291 whole entry): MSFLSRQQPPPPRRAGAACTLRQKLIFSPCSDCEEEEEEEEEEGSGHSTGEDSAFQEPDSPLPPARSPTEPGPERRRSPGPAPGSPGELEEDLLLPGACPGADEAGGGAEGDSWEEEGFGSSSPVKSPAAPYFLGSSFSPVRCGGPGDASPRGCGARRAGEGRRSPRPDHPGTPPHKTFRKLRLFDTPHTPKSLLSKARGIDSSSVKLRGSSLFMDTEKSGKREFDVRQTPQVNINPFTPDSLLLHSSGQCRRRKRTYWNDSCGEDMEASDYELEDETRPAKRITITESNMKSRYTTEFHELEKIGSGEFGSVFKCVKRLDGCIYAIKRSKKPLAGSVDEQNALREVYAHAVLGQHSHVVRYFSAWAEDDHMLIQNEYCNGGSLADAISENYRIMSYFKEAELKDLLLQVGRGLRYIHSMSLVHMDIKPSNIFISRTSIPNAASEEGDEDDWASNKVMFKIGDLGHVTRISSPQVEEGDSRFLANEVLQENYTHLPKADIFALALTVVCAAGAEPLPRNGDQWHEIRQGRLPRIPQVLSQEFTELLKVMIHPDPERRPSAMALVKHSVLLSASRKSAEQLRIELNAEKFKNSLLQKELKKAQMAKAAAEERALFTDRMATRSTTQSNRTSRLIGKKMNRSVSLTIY
# Daoy cells [4] = experiment: MTS assay, Daoy cells, single agent
SMILES,melting point,other results
"C=CCn1c(=O)c2cnc(Nc3ccc(N(C)C)cc3)nc2n1-c1cccc(C(C)(C)O)n1 [11a, 2-Allyl-6-((4-(dimethylamino)phenyl)amino)-1-(6-(2-hydroxypropan-2-yl)pyridin-2-yl)-1,2-dihydro-3Hpyrazolo[3,4-d]pyrimidin-3-one]",173 to 175 °C,–
"C=CCn1c(=O)c2cnc(Nc3ccc(N4CCCCC4)cc3)nc2n1-c1cccc(C(C)(C)O)n1 [11b, 2-Allyl-1-(6-(2-hydroxypropan-2-yl)pyridin-2-yl)-6-((4-(piperidin-1-yl)phenyl)amino)-1,2-dihydro-3Hpyrazolo[3,4-d]pyrimidin-3-one]",158 to 160 °C,–
"C=CCn1c(=O)c2cnc(Nc3ccc(N4CCOCC4)cc3)nc2n1-c1cccc(C(C)(C)O)n1 [11c, 2-Allyl-1-(6-(2-hydroxypropan-2-yl)pyridin-2-yl)-6-((4-morpholinophenyl)amino)-1,2-dihydro-3Hpyrazolo[3,4-d]pyrimidin-3-one]",200 to 203 °C,–
"C=CCn1c(=O)c2cnc(Nc3ccc(N4CCN(C(=O)OC)CC4)cc3)nc2n1-c1cccc(C(C)(C)O)n1 [11d, Methyl 4-(4-((2-allyl-1-(6-(2-hydroxypropan-2-yl)pyridin-2-yl)-3-oxo-2,3-dihydro-1H-pyrazolo[3,4-d]pyrimidin-6-yl)amino)phenyl)piperazine-1-carboxylate]",–,"effect on ONS-76 cell viability as single agent (ONS-76 cells; MTS assay, 72 hours): no effect; concentration at which cell number decreased and percentage of non-viable cells increased compared with DMSO control [1]: 370.4 nM; synergy with cisplatin (Combinatorial Index) (Daoy cells [2]; MTS, Chou-Talalay): synergistic activity at lower cisplatin concentrations; brain penetration [3]: trace amounts"
"C=CCn1c(=O)c2cnc(Nc3ccc(N(C)C)cc3)nc2n1-c1cccc(C(F)(F)F)n1 [11e, 2-Allyl-6-((4-(dimethylamino)phenyl)amino)-1-(6-(trifluoromethyl)pyridin-2-yl)-1,2-dihydro-3Hpyrazolo[3,4-d]pyrimidin-3-one]",179 to 181 °C,–
"C=CCn1c(=O)c2cnc(Nc3ccc(N(C)C)cc3)nc2n1-c1cccc(OC)n1 [11j, 2-Allyl-6-((4-(dimethylamino)phenyl)amino)-1-(6-methoxypyridin-2-yl)-1,2-dihydro-3H-pyrazolo[3,4-d]pyrimidin-3-one]",126 to 128 °C,–
"C=CCn1c(=O)c2cnc(Nc3ccc(N4CCCCC4)cc3)nc2n1-c1cccc(OC)n1 [11k, 2-Allyl-1-(6-methoxypyridin-2-yl)-6-((4-(piperidin-1-yl)phenyl)amino)-1,2-dihydro-3H-pyrazolo[3,4-d]pyrimidin-3-one]",166 to 167 °C,–
"C=CCn1c(=O)c2cnc(Nc3ccc(N4CCN(C)CC4)cc3)nc2n1-c1cccc(C(C)(C)O)n1 [AZD1775, 2-Allyl-1-(6-(2-hydroxypropan-2-yl)pyridin-2-yl)-6-((4-(4-methylpiperazin-1-yl)phenyl)amino)-1,2-dihydro-3H-pyrazolo[3,4-d]pyrimidin-3-one]",–,"EC50 (ONS-76 cells; Homo sapiens, ONS-76, 72 h, read-out: EC50, cell viability of ONS-76 cells): 289 ± 47 nM; concentration at which cell number decreased and percentage of non-viable cells increased compared with DMSO control [1]: 123.5 nM; potentiation of cisplatin by co-treatment with 300 nM Wee1 inhibitor (Daoy cells [2]; 300 nM inhibitor): The effect was also potentiated; brain penetration [3]: trace amounts; Wee1 kinase inhibition (HTS hit) (Wee1 kinase): nanomolar inhibitor of Wee1 kinase; effect of Wee1 inhibitor alone at 300 nM on Daoy cells (Daoy cells [4]; 300 nM, MTS, 72 hours): extensive loss of cellular viability; EC50 (Daoy cells [4]; Homo sapiens, Daoy, 72 h, read-out: EC50, cellular viability of Daoy cells): 219 ± 26 nM"

# Second part, led by results:
melting point,SMILES,other results
182 to 184 °C,"C=CCn1c(=O)c2cnc(Nc3ccc(N4CCCCC4)cc3)nc2n1-c1cccc(C(F)(F)F)n1 [11f, 2-Allyl-6-((4-(piperidin-1-yl)phenyl)amino)-1-(6-(trifluoromethyl)pyridin-2-yl)-1,2-dihydro-3Hpyrazolo[3,4-d]pyrimidin-3-one]",–
215 to 217 °C,"C=CCn1c(=O)c2cnc(Nc3ccc(N4CCOCC4)cc3)nc2n1-c1cccc(C(F)(F)F)n1 [11g, 2-Allyl-6-((4-morpholinophenyl)amino)-1-(6-(trifluoromethyl)pyridin-2-yl)-1,2-dihydro-3Hpyrazolo[3,4-d]pyrimidin-3-one]",–
176 to 180 °C,"C=CCn1c(=O)c2cnc(Nc3ccc(N4CCN(C)CC4)cc3)nc2n1-c1cccc(C(F)(F)F)n1 [11h, 2-Allyl-6-((4-(4-methylpiperazin-1-yl)phenyl)amino)-1-(6-(trifluoromethyl)pyridin-2-yl)-1,2-dihydro-3H-pyrazolo[3,4-d]pyrimidin-3-one]",–
164 to 167 °C,"C=CCn1c(=O)c2cnc(Nc3ccc(N4CCN(C(=O)OC)CC4)cc3)nc2n1-c1cccc(C(F)(F)F)n1 [11i, Methyl 4-(4-((2-allyl-3-oxo-1-(6-(trifluoromethyl)pyridin-2-yl)-2,3-dihydro-1H-pyrazolo [3,4-d]pyrimidin-6-yl)amino)phenyl)piperazine-1-carboxylate]",–
197 to 200 °C,"C=CCn1c(=O)c2cnc(Nc3ccc(N4CCN(C(=O)OC)CC4)cc3)nc2n1-c1cccc(OC)n1 [11n, Methyl 4-(4-((2-allyl-1-(6-methoxypyridin-2-yl)-3-oxo-2,3-dihydro-1H-pyrazolo[3,4-d]pyrimidin-6-yl)amino)phenyl)piperazine-1-carboxylate]",–
